Consider 31 molecules from the supplement of paper PMC4604168 (melanoma cell lines).

The other results are listed elsewhere or left out. Many values rest on one well or one pass, so single values are uncertain.
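Further: cell number obtained by counting DAPI-stained nuclei in high-throughput microscope images with image analysis software, screen run in 1,536-well plates.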

One assay has as its system WM1745. In words: cell count relative to DMSO control; melanoma cells; higher = more viable cells. The note with it: library dose: low library concentration; 72 h.
`COc1ccc(COc2ccc(Cc3cnc(N)nc3N)cc2OC)cc1` + Cc1cc(SCc2sc(-c3ccc(C(F)(F)F)c(F)c3)nc2C)ccc1OCC(=O)O [GW0742] (first compound 1 µM, partner dose 2 µM) yielded a cell count of 88%.
Still for that read-out and setting: with `Clc1ccc(Nc2nnc(Cc3ccncc3)c3ccccc23)cc1` [vatalanib] + C[As](C)SC[C@H](NC(=O)CC[C@H](N)C(=O)O)C(=O)NCC(=O)O [Darinaparsin] (first compound 2 µM, partner dose 0.4 µM) the figure was 88.5%; with `CC(C)C[C@H](NC(=O)[C@H](Cc1ccccc1)NC(=O)c1cnccn1)B(O)O` [Bortezomib] + N.N.[Cl][Pt][Cl] [cisplatin] (first compound 0.001 µM, partner dose 1.6 µM), 77.5%.

For the next assay, the system named is WM3526. Described as above. The note with it: library dose: low library concentration; 72 h.
On to `O=C1NC(=O)/C(=C/c2ccc(-c3ccc(F)cc3O)o2)S1` + O=C(Oc1ccc([N+](=O)[O-])cc1)N1CCC(C(O)(c2ccc3c(c2)OCO3)c2ccc3c(c2)OCO3)CC1 [JZL184] (first compound 1 µM, partner dose 1 µM), for which the cell count came out at 95.9%.
Still for that read-out and setting: with `O=C(O)c1ccc2c(c1)nc(Nc1cccc(Cl)c1)c1ccncc12` + C[As](C)SC[C@H](NC(=O)CC[C@H](N)C(=O)O)C(=O)NCC(=O)O [Darinaparsin] (first compound 0.4 µM, partner dose 0.4 µM) the figure was 75.1%; with `CN1CCN(c2ccc3nc(-c4c(N)c5c(F)cccc5[nH]c4=O)[nH]c3c2)CC1` [Dovitinib] + C/C(O)=C(\C#N)C(=O)Nc1cc(Br)ccc1Br [LFM-A13] (first compound 0.1 µM, partner dose 2 µM), 95%; with `O=C(O)c1ccc2c(c1)nc(Nc1cccc(Cl)c1)c1ccncc12` + Cc1cc(SCc2sc(-c3ccc(C(F)(F)F)c(F)c3)nc2C)ccc1OCC(=O)O [GW0742] (first compound 0.4 µM, partner dose 2 µM), 83%.
`CN1CCN(c2ccc3nc(-c4c(N)c5c(F)cccc5[nH]c4=O)[nH]c3c2)CC1` [Dovitinib] + C[As](C)SC[C@H](NC(=O)CC[C@H](N)C(=O)O)C(=O)NCC(=O)O [Darinaparsin] (first compound 0.1 µM, partner dose 0.4 µM) displayed a cell count of 85.7%.
In the case of `Cc1cc(Nc2cc(N3CCN(C)CC3)nc(Sc3ccc(NC(=O)C4CC4)cc3)n2)n[nH]1` [Tozasertib] + N.N.[Cl][Pt][Cl] [cisplatin] (first compound 0.006 µM, partner dose 1.6 µM), the cell count came to 82.6%.
`CN1CCN(c2ccc3nc(-c4c(N)c5c(F)cccc5[nH]c4=O)[nH]c3c2)CC1` [Dovitinib] + O=C(Oc1ccc([N+](=O)[O-])cc1)N1CCC(C(O)(c2ccc3c(c2)OCO3)c2ccc3c(c2)OCO3)CC1 [JZL184] (first compound 0.1 µM, partner dose 1 µM) displayed a cell count of 80.7%.
The same measure, in the same setting: to `Clc1ccc(Nc2nnc(Cc3ccncc3)c3ccccc23)cc1` [vatalanib] + C/C(O)=C(\C#N)C(=O)Nc1cc(Br)ccc1Br [LFM-A13] (first compound 2 µM, partner dose 2 µM) belongs 113%.
For the molecule `CC(C)C[C@H](NC(=O)[C@H](Cc1ccccc1)NC(=O)c1cnccn1)B(O)O` [Bortezomib] + C[As](C)SC[C@H](NC(=O)CC[C@H](N)C(=O)O)C(=O)NCC(=O)O [Darinaparsin] (first compound 0.001 µM, partner dose 0.4 µM), the cell count amounted to 90.7%.
On the same count and under the same terms, to `Cc1cc([N+](=O)[O-])ccc1NS(=O)(=O)c1cc(Cl)ccc1Cl` + O=C(Oc1ccc([N+](=O)[O-])cc1)N1CCC(C(O)(c2ccc3c(c2)OCO3)c2ccc3c(c2)OCO3)CC1 [JZL184] (first compound 1 µM, partner dose 1 µM) belongs 105%.
Take `Cc1cc(Nc2cc(N3CCN(C)CC3)nc(Sc3ccc(NC(=O)C4CC4)cc3)n2)n[nH]1` [Tozasertib] + Cn1cc(C2=C(c3cn(C4CCN(Cc5ccccn5)CC4)c4ccccc34)C(=O)NC2=O)c2ccccc21 [Enzastaurin] (first compound 0.006 µM, partner dose 0.8 µM): the cell count turned out to be 100%.
Still for that read-out and setting: with `Cc1cc(Nc2cc(N3CCN(C)CC3)nc(Sc3ccc(NC(=O)C4CC4)cc3)n2)n[nH]1` [Tozasertib] + O=C(Oc1ccc([N+](=O)[O-])cc1)N1CCC(C(O)(c2ccc3c(c2)OCO3)c2ccc3c(c2)OCO3)CC1 [JZL184] (first compound 0.006 µM, partner dose 1 µM) the figure was 80.4%; with `Oc1cc(-c2nc(-c3ccccc3)[nH]c2-c2ccncc2)ccc1Cl` + C/C(O)=C(\C#N)C(=O)Nc1cc(Br)ccc1Br [LFM-A13] (first compound 0.2 µM, partner dose 2 µM), 60.1%.
Same read-out and setting: with `O=C(O)C(=O)Nc1sc2c(c1C(=O)O)CCNC2` + O=C(Oc1ccc([N+](=O)[O-])cc1)N1CCC(C(O)(c2ccc3c(c2)OCO3)c2ccc3c(c2)OCO3)CC1 [JZL184] (first compound 1.66667 µM, partner dose 1 µM) the figure was 93.4%.
The same measure, in the same setting: with `C#Cc1cccc(Nc2ncnc3cc(OCCOC)c(OCCOC)cc23)c1` [erlotinib] + C[As](C)SC[C@H](NC(=O)CC[C@H](N)C(=O)O)C(=O)NCC(=O)O [Darinaparsin] (first compound 0.8 µM, partner dose 0.4 µM) the figure was 91.9%; with `Clc1ccc(Nc2nnc(Cc3ccncc3)c3ccccc23)cc1` [vatalanib] + O=C(Oc1ccc([N+](=O)[O-])cc1)N1CCC(C(O)(c2ccc3c(c2)OCO3)c2ccc3c(c2)OCO3)CC1 [JZL184] (first compound 2 µM, partner dose 1 µM), 98.4%.
With `COc1cc2ncnc(Nc3ccc(Oc4ccccc4)cc3)c2cc1OC` + O=C(Oc1ccc([N+](=O)[O-])cc1)N1CCC(C(O)(c2ccc3c(c2)OCO3)c2ccc3c(c2)OCO3)CC1 [JZL184] (first compound 2 µM, partner dose 1 µM), the cell count turned out to be 49.5%.
Same read-out and setting: with `Nc1ccn([C@@H]2O[C@H](CO)[C@@H](O)C2(F)F)c(=O)n1` [gemcitabine] + C[As](C)SC[C@H](NC(=O)CC[C@H](N)C(=O)O)C(=O)NCC(=O)O [Darinaparsin] (first compound 0.0004 µM, partner dose 0.4 µM) the figure was 97%; with `CC(C)C[C@H](NC(=O)[C@H](Cc1ccccc1)NC(=O)c1cnccn1)B(O)O` [Bortezomib] + O=C(Oc1ccc([N+](=O)[O-])cc1)N1CCC(C(O)(c2ccc3c(c2)OCO3)c2ccc3c(c2)OCO3)CC1 [JZL184] (first compound 0.001 µM, partner dose 1 µM), 63.9%; with `c1cc(-c2cnn3cc(-c4ccc(OCCN5CCCCC5)cc4)cnc23)ccn1` [Dorsomorphin] + O=C(Oc1ccc([N+](=O)[O-])cc1)N1CCC(C(O)(c2ccc3c(c2)OCO3)c2ccc3c(c2)OCO3)CC1 [JZL184] (first compound 0.4 µM, partner dose 1 µM), 90.3%.
On the same count and under the same terms, to `Oc1cc(-c2nc(-c3ccccc3)[nH]c2-c2ccncc2)ccc1Cl` + O=C(Oc1ccc([N+](=O)[O-])cc1)N1CCC(C(O)(c2ccc3c(c2)OCO3)c2ccc3c(c2)OCO3)CC1 [JZL184] (first compound 0.2 µM, partner dose 1 µM) belongs 71.5%; to `Nc1ccn([C@@H]2O[C@H](CO)[C@@H](O)C2(F)F)c(=O)n1` [gemcitabine] + C/C(O)=C(\C#N)C(=O)Nc1cc(Br)ccc1Br [LFM-A13] (first compound 0.0004 µM, partner dose 2 µM), 85.6%.
The same measure, in the same setting: with `CC(C)C[C@H](NC(=O)[C@H](Cc1ccccc1)NC(=O)c1cnccn1)B(O)O` [Bortezomib] + C/C(O)=C(\C#N)C(=O)Nc1cc(Br)ccc1Br [LFM-A13] (first compound 0.001 µM, partner dose 2 µM) the figure was 82.1%; with `CO[C@H]1C[C@@H]2CC[C@@H](C)[C@@](O)(O2)C(=O)C(=O)N2CCCC[C@H]2C(=O)O[C@H]([C@H](C)C[C@@H]2CC[C@@H](OCCO)[C@H](OC)C2)CC(=O)[C@H](C)/C=C(\C)[C@@H](O)[C@@H](OC)C(=O)[C@H](C)C[C@H](C)/C=C/C=C/C=C/1C` [everolimus] + Cc1cc(SCc2sc(-c3ccc(C(F)(F)F)c(F)c3)nc2C)ccc1OCC(=O)O [GW0742] (first compound 0.02 µM, partner dose 2 µM), 102%; with `Nc1ccn([C@@H]2O[C@H](CO)[C@@H](O)C2(F)F)c(=O)n1` [gemcitabine] + O=C(Oc1ccc([N+](=O)[O-])cc1)N1CCC(C(O)(c2ccc3c(c2)OCO3)c2ccc3c(c2)OCO3)CC1 [JZL184] (first compound 0.0004 µM, partner dose 1 µM), 111%.
For the molecule `Cc1nc(Nc2ncc(C(=O)Nc3c(C)cccc3Cl)s2)cc(N2CCN(CCO)CC2)n1` [dasatanib] + Cc1cc(SCc2sc(-c3ccc(C(F)(F)F)c(F)c3)nc2C)ccc1OCC(=O)O [GW0742] (first compound 0.004 µM, partner dose 2 µM), the cell count was 102%.
Consider `COCC[n+]1c2c(n(Cc3cnccn3)c1C)C(=O)c1ccccc1C2=O` + Cc1cc(SCc2sc(-c3ccc(C(F)(F)F)c(F)c3)nc2C)ccc1OCC(=O)O [GW0742] (first compound 0.0004 µM, partner dose 2 µM), for which the cell count is 98.9%.
On the same count and under the same terms, to `Cc1cc(Nc2cc(N3CCN(C)CC3)nc(Sc3ccc(NC(=O)C4CC4)cc3)n2)n[nH]1` [Tozasertib] + C/C(O)=C(\C#N)C(=O)Nc1cc(Br)ccc1Br [LFM-A13] (first compound 0.006 µM, partner dose 2 µM) belongs 82.8%.
